Our source for the binding values is patent US20180118829A1.

Sequences of proteins named here, by UniProt entry; tags and fusion partners are left off. A change or cut given only in a name is not applied to a line headed by its entry.
UniProt Q9NZQ7: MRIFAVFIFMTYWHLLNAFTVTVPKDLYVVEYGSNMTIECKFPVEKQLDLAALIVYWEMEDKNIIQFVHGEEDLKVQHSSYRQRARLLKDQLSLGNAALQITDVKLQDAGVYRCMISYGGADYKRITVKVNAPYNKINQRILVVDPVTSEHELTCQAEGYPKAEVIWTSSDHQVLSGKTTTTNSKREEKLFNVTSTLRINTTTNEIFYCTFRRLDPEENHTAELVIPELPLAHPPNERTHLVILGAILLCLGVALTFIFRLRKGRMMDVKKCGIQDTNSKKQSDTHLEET
UniProt Q9BQ51: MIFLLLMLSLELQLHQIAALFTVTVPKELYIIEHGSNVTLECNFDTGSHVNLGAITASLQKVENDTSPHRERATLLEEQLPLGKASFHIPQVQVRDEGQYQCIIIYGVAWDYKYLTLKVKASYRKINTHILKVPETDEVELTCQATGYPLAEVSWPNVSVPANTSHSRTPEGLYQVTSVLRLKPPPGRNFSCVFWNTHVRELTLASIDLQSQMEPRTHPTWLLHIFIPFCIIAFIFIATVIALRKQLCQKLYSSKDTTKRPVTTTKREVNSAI

Assay [1] addresses Cynomolgus monkey PD-1 ECD-Fc-His6 (cynomolgus monkey). The assay is described as follows: BLI (ForteBio OctetRED96), PD-1 ECD-Fc-His6 panel; Y = affinity within ~5-fold of WT human PD-1.
Assay [2] has as its target Human PD-1 A132L ECD-Fc-His6 (human). The description is as above.
In assay [3] the target is Human PD-1 N33-Q167 ECD-Fc-His6 (human). Described as above.
Assay [4] has as its target Human PD-1 extracellular domain (ECD)-Fc-His6 (human). The assay is described as above.
The target of assay [5] is Mouse PD-1 ECD-Fc-His6 (mouse). Described as above.
Assay [6] deals with Human PD-1 I126A ECD-Fc-His6 (human). The assay is described as follows: condition: affinity reduced by >100-fold vs wild-type human PD-1; BLI (ForteBio OctetRED96), PD-1 ECD-Fc-His6 panel.
For assay [7], the target named is Human PD-1 I134A ECD-Fc-His6 (human). The description is as above.
Assay [8] addresses Human PD-1 K78A ECD-Fc-His6 (human). Described as above.
Assay [9] addresses Human PD-1 L128A ECD-Fc-His6 (human). The assay is described as follows: BLI (ForteBio OctetRED96), PD-1 ECD-Fc-His6 panel; Reduced = affinity reduced >10-fold and <100-fold vs WT human PD-1.
The target in assay [10] is Human PD-1 I126A ECD-Fc-His6 (human). The assay is described as follows: BLI (ForteBio OctetRED96), PD-1 ECD-Fc-His6 panel; Y = affinity within ~5-fold of WT human PD-1.
Assay [11] deals with Human PD-1 I134A ECD-Fc-His6 (human). The description is as above.
Assay [12] concerns the target Human PD-1 L128A ECD-Fc-His6 (human). Described as above.

No constants are given. Whether binding was seen depends on the method and setting. Some results given as binding are weak or reduced against the parent protein; the word gives no strength.

Consider “PD-L1 Fc Fusion (from UniProt Q9NZQ7 19-238)”, for which the binding result in assay [1] is “binds”; in assay [2], “binds”; in assay [3] it was “binds”; in assay [4] it was “binds”; in [5], “binds”; in assay [6] it was “no binding”. The results for the binding result in assay [7], in assay [8] and in [9] were “no binding”, “no binding” and “binds”, respectively.
Turning to “PD-L2 Fc Fusion (from UniProt Q9BQ51 20-220)”, the binding result in assay [1], in assay [2], in [10], in assay [11], in assay [12] and in [3] was “binds” throughout. For the same substance, the binding result in [4] was “binds”; in [5], “binds”; in [8], “no binding”.
